Laboratory results: publication PMC9911399, “Two distinct binding modes provide the RNA-binding protein RbFox with extraordinary sequence specificity”
Changes are numbered by the printed parent chain; changes in the protein carry UniProt numbers. The list shows a part of the results.

B1: GCUACAU (DNA:RNA)
RNA: GGGAGACCGGAAUUCAGAUUGUCCGCUACAUUUAAAUCCCGUCGUAGCCACCA
DNA 1: CAATCTGAATTCCGGTCTCCC
DNA 2: TGGTGGCTACGACGGGATT
B2: CUGCAGG (DNA:RNA)
RNA: GGGAGACCGGAAUUCAGAUUGUCCCUGCAGGUUAAAUCCCGUCGUAGCCACCA
DNA 1: CAATCTGAATTCCGGTCTCCC
DNA 2: TGGTGGCTACGACGGGATT
B3: GGCUAGG (DNA:RNA)
RNA: B2 RNA with C25G, U26G, G27C, C28U
DNA 1: CAATCTGAATTCCGGTCTCCC
DNA 2: TGGTGGCTACGACGGGATT
B4: UCGGCGA (DNA:RNA)
RNA: B2 RNA with C25U, U26C, C28G, A29C, G31A
DNA 1: CAATCTGAATTCCGGTCTCCC
DNA 2: TGGTGGCTACGACGGGATT
B5: UAGCGUG (DNA:RNA)
RNA: B2 RNA with C25U, U26A, A29G, G30U
DNA 1: CAATCTGAATTCCGGTCTCCC
DNA 2: TGGTGGCTACGACGGGATT
B6: AUCUGAA (DNA:RNA)
RNA: B2 RNA with C25A, G27C, C28U, A29G, G30A, G31A
DNA 1: CAATCTGAATTCCGGTCTCCC
DNA 2: TGGTGGCTACGACGGGATT
B7: GCUAGGG (DNA:RNA)
RNA: B1 RNA with C29G, A30G, U31G
DNA 1: CAATCTGAATTCCGGTCTCCC
DNA 2: TGGTGGCTACGACGGGATT
B8: UCAGAGG (DNA:RNA)
RNA: B2 RNA with C25U, U26C, G27A, C28G
DNA 1: CAATCTGAATTCCGGTCTCCC
DNA 2: TGGTGGCTACGACGGGATT
B9: CAGAGGG (DNA:RNA)
RNA: B2 RNA with U26A, C28A, A29G
DNA 1: CAATCTGAATTCCGGTCTCCC
DNA 2: TGGTGGCTACGACGGGATT
B10: UUUGCGC (DNA:RNA)
RNA: B2 RNA with C25U, G27U, C28G, A29C, G31C
DNA 1: CAATCTGAATTCCGGTCTCCC
DNA 2: TGGTGGCTACGACGGGATT
B11: UGUCUCA (DNA:RNA)
RNA: B2 RNA with C25U, U26G, G27U, A29U, G30C, G31A
DNA 1: CAATCTGAATTCCGGTCTCCC
DNA 2: TGGTGGCTACGACGGGATT
B12: ACCGGAG (DNA:RNA)
RNA: B1 RNA with G25A, U27C, A28G, C29G, U31G
DNA 1: CAATCTGAATTCCGGTCTCCC
DNA 2: TGGTGGCTACGACGGGATT
B13: GUACCGG (DNA:RNA)
RNA: B2 RNA with C25G, G27A, A29C
DNA 1: CAATCTGAATTCCGGTCTCCC
DNA 2: TGGTGGCTACGACGGGATT
B14: GUGAAUA (DNA:RNA)
RNA: B2 RNA with C25G, C28A, G30U, G31A
DNA 1: CAATCTGAATTCCGGTCTCCC
DNA 2: TGGTGGCTACGACGGGATT
B15: CCAUUGG (DNA:RNA)
RNA: B2 RNA with U26C, G27A, C28U, A29U
DNA 1: CAATCTGAATTCCGGTCTCCC
DNA 2: TGGTGGCTACGACGGGATT
B16: GACUCCA (DNA:RNA)
RNA: B1 RNA with C26A, U27C, A28U, A30C, U31A
DNA 1: CAATCTGAATTCCGGTCTCCC
DNA 2: TGGTGGCTACGACGGGATT
B17: UCCCAAG (DNA:RNA)
RNA: B2 RNA with C25U, U26C, G27C, G30A
DNA 1: CAATCTGAATTCCGGTCTCCC
DNA 2: TGGTGGCTACGACGGGATT
B18: AGCUUUA (DNA:RNA)
RNA: GGGAGACCGGAAUUCAGAUUGUCCAGCUUUAUUAAAUCCCGUCGUAGCCACCA
DNA 1: CAATCTGAATTCCGGTCTCCC
DNA 2: TGGTGGCTACGACGGGATT
B19: UCGUGCG (DNA:RNA)
RNA: B2 RNA with C25U, U26C, C28U, A29G, G30C
DNA 1: CAATCTGAATTCCGGTCTCCC
DNA 2: TGGTGGCTACGACGGGATT
B20: CUCACUC (DNA:RNA)
RNA: B18 RNA with A25C, G26U, U28A, U29C, A31C
DNA 1: CAATCTGAATTCCGGTCTCCC
DNA 2: TGGTGGCTACGACGGGATT

Molecular target: T1, RBFOX1 RRM (Homo sapiens, UniProt Q9NWB1 109-208)
T1 sequence: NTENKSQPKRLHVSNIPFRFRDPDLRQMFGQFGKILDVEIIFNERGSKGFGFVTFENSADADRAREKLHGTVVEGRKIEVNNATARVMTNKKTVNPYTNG
Test: EMSA; HiTS-Eq, 1 nM pool, 10 min; buffer printed only for the single-RNA assays: 10 mM Tris pH 7.5, 150 mM NaCl, 3.4 mM EDTA, 0.001% NP-40, 30 C
Details: tags: His6 N-terminal (pET28a); label: 5' 32P
Procedure, shortened: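 Relative association constants, normalised to the cognate motif, were derived by comparing read counts of each RNA species with those of the control reaction. The RNA sequenced was the free fraction, separated by 8% native PAGE after a 10 min equilibration in 50 µL of 1 nM 5′-radiolabelled RNA (7 randomized nucleotides) with increasing concentrations of purified wild-type or mutant RbFox RRM.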

**Q.** With B1 as the binder, how does the binding signal read?
**A.** 0.00711 KA relative to UGCAUGU

**Q.** With B2 as the binder, how does the binding signal read?
**A.** 0.0186 KA relative to UGCAUGU

**Q.** With B3 as the binder, how does the binding signal read?
**A.** 0.0209 KA relative to UGCAUGU

**Q.** How did the binding signal turn out when B4 was run?
**A.** 0.0175 KA relative to UGCAUGU

**Q.** How did the binding signal turn out when B5 was run?
**A.** 0.0281 KA relative to UGCAUGU

**Q.** Which binding signal does the source give for B6 here?
**A.** 0.0149 KA relative to UGCAUGU

**Q.** With B7 as the binder, how does the binding signal read?
**A.** 0.00935 KA relative to UGCAUGU

**Q.** Which binding signal does the source give for B8 here?
**A.** 0.00775 KA relative to UGCAUGU

**Q.** B9 was tested. Which binding signal did it give?
**A.** 0.00485 KA relative to UGCAUGU

**Q.** Which binding signal does the source give for B10 here?
**A.** 0.0234 KA relative to UGCAUGU

**Q.** Which binding signal does the source give for B11 here?
**A.** 0.0115 KA relative to UGCAUGU

**Q.** For B12, which binding signal is on record?
**A.** 0.00294 KA relative to UGCAUGU

**Q.** For B13, which binding signal is on record?
**A.** 0.00799 KA relative to UGCAUGU

**Q.** How did the binding signal turn out when B14 was run?
**A.** 0.00781 KA relative to UGCAUGU

**Q.** How did the binding signal turn out when B15 was run?
**A.** 0.00895 KA relative to UGCAUGU

**Q.** Which binding signal does the source give for B16 here?
**A.** 0.00309 KA relative to UGCAUGU

**Q.** How did the binding signal turn out when B17 was run?
**A.** 0.00478 KA relative to UGCAUGU

**Q.** B18 was tested. Which binding signal did it give?
**A.** 0.00271 KA relative to UGCAUGU

**Q.** Which binding signal does the source give for B19 here?
**A.** 0.0219 KA relative to UGCAUGU

**Q.** B20 was tested. Which binding signal did it give?
**A.** 0.00338 KA relative to UGCAUGU
